Measurements from the supplement of paper PMC4967469.

Columns and labels:
Test in all cases: Viability of human cancer cell lines after 72 h of drug (GDSC screen)
PI-103 = compound: Oc1cccc(-c2nc(N3CCOCC3)c3oc4ncccc4c3n2)c1 [PI-103]; conditions: top dose 10.24 µM
Experimental: (§1)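 Human cancer cell lines in 384-well plates, medium with 10% serum, drug for 72 h over a 256-fold dose range (nine 2-fold or five 4-fold steps up to the top dose). Adherent lines were fixed and stained with the nucleic acid dye Syto60, suspension lines read with resazurin; signal relative to control wells, capped at 0 and 100%. One two-parameter sigmoid per drug and line, fitted in a mixed model over all curves with the slope shared within a line.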

BX-795 = compound: O=C(NCCCNc1nc(Nc2cccc(NC(=O)N3CCCC3)c2)ncc1I)c1cccs1 [BX-795]; conditions: top dose 5 µM; top dose inferred
Experimental: as §1

UNC0638 = compound: COc1cc2c(NC3CCN(C(C)C)CC3)nc(C3CCCCC3)nc2cc1OCCCN1CCCC1 [UNC0638]
Experimental: as §1

GSK690693 = compound: CCn1c(-c2nonc2N)nc2c(C#CC(C)(C)O)ncc(OC[C@H]3CCCNC3)c21 [GSK690693]; conditions: top dose 10.24 µM; top dose inferred
Experimental: as §1

SB-505124 = compound: Cc1cccc(-c2[nH]c(C(C)(C)C)nc2-c2ccc3c(c2)OCO3)n1 [SB-505124]; conditions: top dose 10 µM; top dose inferred
Experimental: as §1

[1] = top dose 20 µM, screen: GDSC drug entry 1236, top dose inferred
[2] = top dose 40 µM, screen: GDSC drug entry 245

| Cell Line | AUC (PI-103) | IC50 (PI-103) | AUC (BX-795) | IC50 (BX-795) | AUC (UNC0638; [1]) | IC50 (UNC0638; [1]) | AUC (UNC0638; [2]) | IC50 (UNC0638; [2]) | AUC (GSK690693) | IC50 (GSK690693) | AUC (SB-505124) | IC50 (SB-505124) |
| --- | --- | --- | --- | --- | --- | --- | --- | --- | --- | --- | --- | --- |
| HuH-7 (liver, adherent) | 0.976 | > 10.2 µM | 0.865 | 4.39 µM | 0.855 | 15.8 µM | 0.839 | 27.1 µM | 0.987 | > 10.2 µM | 0.883 | > 10 µM |
| LN-405 (glioma, adherent) | 0.546 | 0.881 µM | 0.922 | > 5 µM | 0.905 | > 20 µM | 0.761 | 17.7 µM | 0.958 | > 10.2 µM | 0.975 | > 10 µM |
| M059J (glioma, adherent) | 0.743 | 3.41 µM | 0.739 | 1.61 µM | 0.904 | > 20 µM | 0.826 | 26.9 µM | 0.98 | > 10.2 µM | 0.98 | > 10 µM |
| MCF7 (breast, adherent) |  |  | 0.931 | > 5 µM | 0.962 | > 20 µM | 0.981 | > 40 µM | 0.986 | > 10.2 µM | 0.98 | > 10 µM |
| MDA-MB-157 (breast, adherent) | 0.904 | > 10.2 µM | 0.74 | 1.55 µM | 0.967 | > 20 µM | 0.913 | > 40 µM | 0.988 | > 10.2 µM | 0.985 | > 10 µM |
| MDA-MB-231 (breast, adherent) | 0.871 | > 10.2 µM | 0.881 | > 5 µM | 0.956 | > 20 µM | 0.859 | 36.6 µM | 0.986 | > 10.2 µM | 0.985 | > 10 µM |
| ME-180 (cervix, adherent) | 0.209 | 0.0851 µM | 0.894 | > 5 µM | 0.978 | > 20 µM | 0.895 | > 40 µM | 0.535 | 0.799 µM | 0.924 | > 10 µM |
| MFE-319 (endometrium, adherent) | 0.54 | 0.819 µM | 0.95 | > 5 µM | 0.979 | > 20 µM | 0.965 | > 40 µM | 0.978 | > 10.2 µM | 0.988 | > 10 µM |
| MKN1 (stomach, adherent) | 0.638 | 1.57 µM | 0.883 | > 5 µM | 0.833 | 13.9 µM | 0.846 | 31.7 µM | 0.966 | > 10.2 µM | 0.953 | > 10 µM |
| MM1S (myeloma, suspension) |  |  | 0.893 | > 5 µM |  |  |  |  |  |  |  |  |
| MOLT-13 (T-cell lymphoblastic leukaemia, suspension) | 0.817 | 4.86 µM | 0.726 | 1.24 µM | 0.694 | 4.06 µM | 0.577 | 3.95 µM | 0.883 | 8.69 µM | 0.96 | > 10 µM |
| NCI-H929 (myeloma, suspension) |  |  | 0.699 | 1.03 µM | 0.817 | 9.17 µM |  |  |  |  | 0.965 | > 10 µM |
| NCI-H2066 (small cell lung carcinoma, adherent) |  |  | 0.971 | > 5 µM | 0.963 | > 20 µM |  |  |  |  | 0.954 | > 10 µM |
| PC-3 (prostate, adherent) |  |  | 0.834 | 4.31 µM | 0.969 | > 20 µM | 0.869 | > 40 µM | 0.866 | > 10.2 µM | 0.971 | > 10 µM |
| RD (rhabdomyosarcoma, adherent) | 0.347 | 0.231 µM |  |  | 0.959 | > 20 µM | 0.843 | 32.5 µM | 0.965 | > 10.2 µM | 0.982 | > 10 µM |
| RT-112 (bladder, adherent) | 0.368 | 0.269 µM |  |  | 0.819 | 12.6 µM | 0.87 | > 40 µM | 0.908 | > 10.2 µM | 0.983 | > 10 µM |
| SN12C (kidney, adherent) | 0.924 | > 10.2 µM |  |  | 0.954 | > 20 µM | 0.979 | > 40 µM | 0.986 | > 10.2 µM | 0.975 | > 10 µM |
| SNU-398 (liver, adherent) | 0.551 | 0.889 µM |  |  | 0.748 | 6.64 µM | 0.655 | 6.88 µM | 0.983 | > 10.2 µM | 0.953 | > 10 µM |
| SNU-1040 (large intestine, adherent) | 0.646 | 1.87 µM |  |  | 0.921 | > 20 µM | 0.76 | 18.7 µM | 0.633 | 1.7 µM | 0.972 | > 10 µM |
| SW156 (kidney, adherent) | 0.934 | > 10.2 µM |  |  | 0.979 | > 20 µM | 0.938 | > 40 µM | 0.922 | > 10.2 µM | 0.914 | > 10 µM |
| SW837 (large intestine, adherent) | 0.745 | 4.13 µM |  |  | 0.961 | > 20 µM | 0.888 | > 40 µM | 0.979 | > 10.2 µM | 0.969 | > 10 µM |
| SW1088 (glioma, adherent) | 0.791 | 6.2 µM |  |  | 0.904 | > 20 µM | 0.915 | > 40 µM | 0.943 | > 10.2 µM | 0.943 | > 10 µM |
| SW1116 (large intestine, adherent) | 0.966 | > 10.2 µM |  |  | 0.975 | > 20 µM | 0.949 | > 40 µM | 0.984 | > 10.2 µM | 0.982 | > 10 µM |
| SW1463 (large intestine, adherent) | 0.968 | > 10.2 µM |  |  | 0.969 | > 20 µM | 0.974 | > 40 µM | 0.978 | > 10.2 µM | 0.975 | > 10 µM |
| T-24 (bladder, adherent) | 0.842 | 6.69 µM |  |  | 0.987 | > 20 µM | 0.754 | 13 µM | 0.98 | > 10.2 µM | 0.878 | 9.36 µM |
| U-2-OS (osteosarcoma, adherent) | 0.921 | > 10.2 µM |  |  | 0.777 | 8.75 µM | 0.855 | 36.4 µM | 0.976 | > 10.2 µM | 0.963 | > 10 µM |

IC50 is the fitted dose that halves viability relative to control wells, and lower means more sensitive; a limit (>, <) means that the fit lies beyond the doses tested. The AUC spans the tested range (256-fold, ending at the top dose) of the same fit: 1 means no effect, lower means more sensitive. For some of these results: The top dose, if marked as inferred, is not printed in the source and was worked back from the curve model. For some of these results: Drugs with an entry number were screened twice under separate entries, and the two screens often disagree.
